One compound from paper PMC5216877, “Exploring conformational equilibria of a heterodimeric ABC transporter” (eLife, 2017) can be followed below.

The subject of this test is TM287/288_E517Q^TM288. The test can be described thus: Residual ATPase activity of E-to-Q mutant of TM287/288 in detergent. Format: biochemical, Thermotoga maritima. As to conditions: TM287/288 E517Q^TM288, ATP-Mg, 25°C. As for the experimental part: Incubation with buffers containing the same nucleotide concentration without protein served for background subtraction in these assays.

In the case of `Nc1ncnc2c1ncn2[C@@H]1O[C@H](COP(=O)(O)OP(=O)(O)OP(=O)(O)O)[C@@H](O)[C@H]1O` [ATP], the ATPase activity is recorded as 0.165 ± 0.015 nmol Pi/min/mg protein; the “ATPase activity, % of wildtype” value was found to be 0.192%; the Turnover per transporter worked out at 0.0219 min⁻¹.
